In all, about 360,000 compounds went through this assay and about 2,600 (0.72%) were called active. Inconclusive means that the source gave no clear call. Such entries were picked first, then a sample of the others. The call rests on the fitted dose curve; in most records, active means well fitted inhibition curve with a large enough effect; inconclusive means small, poorly fitted or top-dose-only effect; inactive means no such curve, though single readings can be large or run the other way. Where the call is inconclusive, the potency comes from a doubtful curve fit.
Experiment: Primary qHTS for Inhibitors of ATXN expression; further: nearly all actives have a fitted effect of over 55% in size
Settings: HEK-293 ATXN2-luciferase reporter, luminescence, 24 h; series mostly up to 57 µM
In short: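 ATXN2-luciferase reporter cells (luciferase flanked by upstream and downstream ATXN2 gene portions) were treated 24 h at 37 °C with compounds at up to 57 uM. SteadyGlo luminescence gave expression; GF-AFC fluorescence gave viability.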
Potency means the concentration at half of the fitted maximal effect; tags describe the fitted curve by direction and shape.

Potency, inconclusive:
O=C(Nc1ccc(NC(=O)c2ccc(Cl)cc2Cl)cc1)c1cccs1 14.1 µM [inhibitor, partial curve]
CC(=O)Nc1cc(-c2ccc(CO)cc2)cn2c(-c3cccc(C(F)(F)F)c3)cnc12 39.8 µM [inhibitor, single point]
O=C(O)c1ccccc1NC(c1ccccc1)c1ccc2cccnc2c1O (stereo not drawn) 33.6 µM [inhibitor, single point]
Cc1cccc(N2CCN(C(=O)c3ccc4c(c3)CCN4S(C)(=O)=O)CC2)c1C 17.8 µM [inhibitor, partial curve, poor fit]
O=C(O)c1ccc(SCc2cnc(Cl)s2)cc1 31.6 µM [inhibitor, single point]
CCOc1cc(CNCCSc2nnnn2C)cc(Br)c1OCc1ccc(F)cc1 16.8 µM [inhibitor, single point]
CCSc1nnc(NC(=O)c2ccccn2)s1 14.1 µM [inhibitor, partial curve, poor fit]
C#CCOCCOCCOCCNc1nc(N2CCN(C(=O)CCCCCCCCCCNC(=O)[C@H]([C@@H](C)CC)n3cc(CCCCN=C(N)N)nn3)CC2)nc(N2CCN(C(=O)CCCCCCCCCCNC(=O)[C@H](CO)n3cc(CCCSC)nn3)CC2)n1 3.16 µM [inhibitor, full curve]
O=C(COc1ccc(Cl)cc1)Nc1ncc([N+](=O)[O-])s1 37.7 µM [inhibitor, single point]
CCN1CCN(c2cc(C)c3cc(NC(=O)c4cccc(C(F)(F)F)c4)ccc3n2)CC1 14.1 µM [inhibitor, partial curve, poor fit]
COC(=O)C1=C(C)N(Cc2ccccc2)C(=NCC(C)C)N[C@H]1c1ccccc1 15.8 µM [inhibitor, partial curve, poor fit]

Potency, active:
Cc1ccc(C(=O)Nc2ncc([N+](=O)[O-])s2)cc1 2.82 µM
CCSc1nc2ccccc2n1C(=O)/C=C\c1ccc(OC)c(OC)c1 12.6 µM

Potency, inactive:
CCCc1c(C)nn(C(=O)/C(C#N)=N/Nc2ccccc2[N+](=O)[O-])c1C
O=C(Nc1nnc(-c2ccccc2)o1)c1cc(Cl)sc1Cl
COC(=O)c1c(-c2ccc(S(C)(=O)=O)cc2)sc2cc(OC)ccc12
CCCCCC(=O)Nc1sc(C)c(C)c1C#N
O=C(NNC(=S)NC(=O)c1ccc(F)cc1)c1ccncc1

From PubChem BioAssay AID1745845 (National Center for Advancing Translational Sciences (NCATS), 2022)
